The list shows a part of the results. Sequences were assembled here from the parent chain. Values near 0.05 are background.
B1: TEV protease; numbered along this chain (parent)
chain: MGESLFKGPRDYNPISSSICHLTNESDGHTTSLYGIGFGPFIITNKHLFRRNNGTLVVQSLHGVFKVKDTTTLQQHLVDGRDMIIIRMPKDFPPFPQKLKFREPQREERICLVTTNFQTKSMSSMVSDTSCTFPSGDGIFWKHWIQTKDGQCGSPLVSTRDGFIVGIHSASNFTNTNNYFTSVPKNFMELLTNQEAQQWVSGWRLNADSVLWGGHKVFMVKPEEPFQPVKEATQL

Variants of: B1
Experiment: raw area under fraction-flipped curve 0-4 h after induction (AUC4h, not background-subtracted), DNA-recorder readout of cleavage of the substrate (dimensionless); higher = more cleavage of the substrate by the protease variant
Settings: temperature: 34 °C; time window: 0-4 h after rhamnose induction
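Note: Bxb1 expression induced with 0.2% (w/v) L-rhamnose at OD600 near 0.5, cultures sampled hourly, flipped fraction per protease–substrate barcode pair counted by paired-end Illumina sequencing.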

MGESLFKGPRDYNPISSSICHLTNESDGHTTSLYGIGFGPFIITNKHLFRRNNGTLVVQSLHGVFKVKDTTTLQQHLVDGRDMIIIRMPKDFPPFPQKLKFREPQREERICLVTTNFQTKSMSSMVSDTSCTFPSGDGIFTKHWIQTKDGQCGSPLVSTRDGFIVGIHSASNFTNTNNYFTSVPKNFMELLTNQEAQQWVSGWRLNADSVLWGGHKVFMVKPEEPFQPVKEATQL [W141T]
area with substrate ENLYDQS: 0.0585 | area with substrate ENLYGQS: 0.0605 | area with substrate ENLYHQS: 0.0686 | area with substrate ENLYIQS: 0.0592 | area with substrate ENLYMQS: 0.0584 | area with substrate ENLYRQS: 0.069 | area with substrate ENLYTQS: 0.0623 | area with substrate ENLYWQS: 0.0729

MGESLFKGPRDYNPISSSICHLTNESDGHTTSLYGIGFGPFIITNKHLFRRNNGTLVVQSLHGVFKVKDTTTLQQHLVDGRDMIIIRMPKDFPPFPQKLKFREPQREERICLVTTNFQTKSMSSMVSDTSCTFPSGDGIFWVHWIQTKDGQCGSPLVSTRDGFIVGIHSASNFTNTNNYFTSVPKNFMELLTNQEAQQWVSGWRLNADSVLWGGHKVFMVKPEEPFQPVKEATQL [K142V]
area with substrate ENLYDQS: 0.0651 | area with substrate ENLYEQS: 0.0716 | area with substrate ENLYGQS: 0.0589 | area with substrate ENLYHQS: 0.0612 | area with substrate ENLYIQS: 0.107 | area with substrate ENLYNQS: 0.0633 | area with substrate ENLYPQS: 0.0672 | area with substrate ENLYQQS: 0.0748 | area with substrate ENLYSQS: 0.076 | area with substrate ENLYTQS: 0.0719 | area with substrate ENLYWQS: 0.0735 | area with substrate ENLYYQS: 0.0571

MGESLFKGPRDYNPISSSICHLTNESDGHTTSLYGIGFGPFIITNKHLFRRNNGTLVVQSLHGVFKVKDTTTLQQHLVDGRDMIIIRMPKDFPPFPQKLKFREPQREERICLVTTNFQTKSMSSMVSDTSCTFPSGDGIFWKHWHQTKDGQCGSPLVSTRDGFIVGIHSASNFTNTNNYFTSVPKNFMELLTNQEAQQWVSGWRLNADSVLWGGHKVFMVKPEEPFQPVKEATQL [I145H]
area with substrate ENLYDQS: 0.0604 | area with substrate ENLYEQS: 0.0613 | area with substrate ENLYGQS: 0.0755 | area with substrate ENLYIQS: 0.162 | area with substrate ENLYKQS: 0.0677 | area with substrate ENLYLQS: 0.0679 | area with substrate ENLYQQS: 0.0645 | area with substrate ENLYRQS: 0.0524 | area with substrate ENLYSQS: 0.0783 | area with substrate ENLYTQS: 0.0909 | area with substrate ENLYYQS: 0.0412

MGESLFKGPRDYNPISSSICHLTNESDGHTTSLYGIGFGPFIITNKHLFRRNNGTLVVQSLHGVFKVKDTTTLQQHLVDGRDMIIIRMPKDFPPFPQKLKFREPQREERICLVTTNFQTKSMSSMVSDTSCTFPSGDGIFWKHWIQDKDGQCGSPLVSTRDGFIVGIHSASNFTNTNNYFTSVPKNFMELLTNQEAQQWVSGWRLNADSVLWGGHKVFMVKPEEPFQPVKEATQL [T147D]
area with substrate ENLYDQS: 0.0643 | area with substrate ENLYEQS: 0.0693 | area with substrate ENLYKQS: 0.0575 | area with substrate ENLYLQS: 0.0624 | area with substrate ENLYPQS: 0.0054 | area with substrate ENLYWQS: 0.0635

MGESLFKGPRDYNPISSSICHLTNESDGHTTSLYGIGFGPFIITNKHLFRRNNGTLVVQSLHGVFKVKDTTTLQQHLVDGRDMIIIRMPKDFPPFPQKLKFREPQREERICLVTTNFQTKSMSSMVSDTSCTFPSGDGIFWKHWIQTKDGQCGSPLMSTRDGFIVGIHSASNFTNTNNYFTSVPKNFMELLTNQEAQQWVSGWRLNADSVLWGGHKVFMVKPEEPFQPVKEATQL [V157M]
area with substrate ENLYDQS: 0.0758 | area with substrate ENLYEQS: 0.0646 | area with substrate ENLYGQS: 0.0721 | area with substrate ENLYHQS: 0.0523 | area with substrate ENLYIQS: 0.106 | area with substrate ENLYKQS: 0.0823 | area with substrate ENLYMQS: 0.0729 | area with substrate ENLYNQS: 0.0409 | area with substrate ENLYPQS: 0.0692 | area with substrate ENLYSQS: 0.0694 | area with substrate ENLYTQS: 0.008 | area with substrate ENLYVQS: 0.114 | area with substrate ENLYWQS: 0.0771

MGESLFKGPRDYNPISSSICHLTNESDGHTTSLYGIGFGPFIITNKHLFRRNNGTLVVQSLHGVFKVKDTTTLQQHLVDGRDMIIIRMPKDFPPFPQKLKFREPQREERICLVTTNFQTKSMSSMVSDTSCTFPSGDGIFWKHWIQTKDGQCGSPLVSFRDGFIVGIHSASNFTNTNNYFTSVPKNFMELLTNQEAQQWVSGWRLNADSVLWGGHKVFMVKPEEPFQPVKEATQL [T159F]
area with substrate ENLYDQS: 0.0625 | area with substrate ENLYGQS: 0.0372 | area with substrate ENLYHQS: 0.0563 | area with substrate ENLYNQS: 0.0564 | area with substrate ENLYPQS: 0.0581 | area with substrate ENLYTQS: 0.0799 | area with substrate ENLYVQS: 0.129 | area with substrate ENLYWQS: 0.0586

MGESLFKGPRDYNPISSSICHLTNESDGHTTSLYGIGFGPFIITNKHLFRRNNGTLVVQSLHGVFKVKDTTTLQQHLVDGRDMIIIRMPKDFPPFPQKLKFREPQREERICLVTTNFQTKSMSSMVSDTSCTFPSGDGIFWKHWIQTKDGQCGSPLVSTRPGFIVGIHSASNFTNTNNYFTSVPKNFMELLTNQEAQQWVSGWRLNADSVLWGGHKVFMVKPEEPFQPVKEATQL [D161P]
area with substrate ENLYDQS: 0.0588 | area with substrate ENLYRQS: 0.0544 | area with substrate ENLYSQS: 0.0428

MGESLFKGPRDYNPISSSICHLTNESDGHTTSLYGIGFGPFIITNKHLFRRNNGTLVVQSLHGVFKVKDTTTLQQHLVDGRDMIIIRMPKDFPPFPQKLKFREPQREERICLVTTNFQTKSMSSMVSDTSCTFPSGDGIFWKHWIQTKDGQCGSPLVSTRDGFKVGIHSASNFTNTNNYFTSVPKNFMELLTNQEAQQWVSGWRLNADSVLWGGHKVFMVKPEEPFQPVKEATQL [I164K]
area with substrate ENLYDQS: 0.0658 | area with substrate ENLYGQS: 0.0486 | area with substrate ENLYKQS: 0.0573 | area with substrate ENLYQQS: 0.0678 | area with substrate ENLYVQS: 0.029 | area with substrate ENLYYQS: 0.0635

MGESLFKGPRDYNPISSSICHLTNESDGHTTSLYGIGFGPFIITNKHLFRRNNGTLVVQSLHGVFKVKDTTTLQQHLVDGRDMIIIRMPKDFPPFPQKLKFREPQREERICLVTTNFQTKSMSSMVSDTSCTFPSGDGIFWKHWIQTKDGQCGSPLVSTRDGFSVGIHSASNFTNTNNYFTSVPKNFMELLTNQEAQQWVSGWRLNADSVLWGGHKVFMVKPEEPFQPVKEATQL [I164S]
area with substrate ENLYDQS: 0.0463 | area with substrate ENLYEQS: 0.0537 | area with substrate ENLYGQS: 0.0604 | area with substrate ENLYHQS: 0.047 | area with substrate ENLYIQS: 0.0634 | area with substrate ENLYKQS: 0.0479 | area with substrate ENLYMQS: 0.05 | area with substrate ENLYNQS: 0.0553 | area with substrate ENLYPQS: 0.0482 | area with substrate ENLYRQS: 0.0364 | area with substrate ENLYVQS: 0.0515 | area with substrate ENLYWQS: 0.0409 | area with substrate ENLYYQS: 0.0502

MGESLFKGPRDYNPISSSICHLTNESDGHTTSLYGIGFGPFIITNKHLFRRNNGTLVVQSLHGVFKVKDTTTLQQHLVDGRDMIIIRMPKDFPPFPQKLKFREPQREERICLVTTNFQTKSMSSMVSDTSCTFPSGDGIFWKHWIQTKDGQCGSPLVSTRDGFIVGHHSASNFTNTNNYFTSVPKNFMELLTNQEAQQWVSGWRLNADSVLWGGHKVFMVKPEEPFQPVKEATQL [I167H]
area with substrate ENLYDQS: 0.0558 | area with substrate ENLYEQS: 0.0527 | area with substrate ENLYIQS: 0.07 | area with substrate ENLYKQS: 0.0559 | area with substrate ENLYLQS: 0.0729 | area with substrate ENLYMQS: 0.0472 | area with substrate ENLYNQS: 0.0521 | area with substrate ENLYPQS: 0.0378 | area with substrate ENLYRQS: 0.0409 | area with substrate ENLYVQS: 0.0484 | area with substrate ENLYYQS: 0.0473
